# Paper PMC9911399, “Two distinct binding modes provide the RNA-binding protein RbFox with extraordinary sequence specificity”
# Residue numbers refer to the chain shown, from its start. This is one part of the list.
# T1: RBFOX1 RRM RbFoxmut (Fox-RRM*) (Homo sapiens, UniProt Q9NWB1 109-208, R118D;E147R;N151S;E152T)
# T1 sequence: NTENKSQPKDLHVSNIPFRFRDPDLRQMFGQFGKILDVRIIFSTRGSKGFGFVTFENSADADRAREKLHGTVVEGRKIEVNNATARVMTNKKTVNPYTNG
# B1: AAAUAUG (DNA:RNA)
# RNA: GGGAGACCGGAAUUCAGAUUGUCCAAAUAUGUUAAAUCCCGUCGUAGCCACCA
# DNA 1: CAATCTGAATTCCGGTCTCCC
# DNA 2: TGGTGGCTACGACGGGATT
# B2: GUUCAAC (DNA:RNA)
# RNA: B1 RNA with A25G, A26U, A27U, U28C, U30A, G31C
# DNA 1: CAATCTGAATTCCGGTCTCCC
# DNA 2: TGGTGGCTACGACGGGATT
# B3: GUGUACA (DNA:RNA)
# RNA: B1 RNA with A25G, A26U, A27G, U30C, G31A
# DNA 1: CAATCTGAATTCCGGTCTCCC
# DNA 2: TGGTGGCTACGACGGGATT
# B4: CGAAAGU (DNA:RNA)
# RNA: B1 RNA with A25C, A26G, U28A, U30G, G31U
# DNA 1: CAATCTGAATTCCGGTCTCCC
# DNA 2: TGGTGGCTACGACGGGATT
# B5: UCGAUAC (DNA:RNA)
# RNA: GGGAGACCGGAAUUCAGAUUGUCCUCGAUACUUAAAUCCCGUCGUAGCCACCA
# DNA 1: CAATCTGAATTCCGGTCTCCC
# DNA 2: TGGTGGCTACGACGGGATT
# B6: UUUUUCU (DNA:RNA)
# RNA: B5 RNA with C26U, G27U, A28U, A30C, C31U
# DNA 1: CAATCTGAATTCCGGTCTCCC
# DNA 2: TGGTGGCTACGACGGGATT
# B7: GAGAUUG (DNA:RNA)
# RNA: B1 RNA with A25G, A27G, U28A, A29U
# DNA 1: CAATCTGAATTCCGGTCTCCC
# DNA 2: TGGTGGCTACGACGGGATT
# B8: CGUACAG (DNA:RNA)
# RNA: B5 RNA with U25C, C26G, G27U, U29C, C31G
# DNA 1: CAATCTGAATTCCGGTCTCCC
# DNA 2: TGGTGGCTACGACGGGATT
# B9: AUGUUUC (DNA:RNA)
# RNA: B1 RNA with A26U, A27G, A29U, G31C
# DNA 1: CAATCTGAATTCCGGTCTCCC
# DNA 2: TGGTGGCTACGACGGGATT
# B10: GGGUGGG (DNA:RNA)
# RNA: B1 RNA with A25G, A26G, A27G, A29G, U30G
# DNA 1: CAATCTGAATTCCGGTCTCCC
# DNA 2: TGGTGGCTACGACGGGATT
# B11: AAAAAAU (DNA:RNA)
# RNA: B1 RNA with U28A, U30A, G31U
# DNA 1: CAATCTGAATTCCGGTCTCCC
# DNA 2: TGGTGGCTACGACGGGATT
# B12: CCCGUUG (DNA:RNA)
# RNA: B1 RNA with A25C, A26C, A27C, U28G, A29U
# DNA 1: CAATCTGAATTCCGGTCTCCC
# DNA 2: TGGTGGCTACGACGGGATT
# B13: UACACGA (DNA:RNA)
# RNA: B5 RNA with C26A, G27C, U29C, A30G, C31A
# DNA 1: CAATCTGAATTCCGGTCTCCC
# DNA 2: TGGTGGCTACGACGGGATT
# B14: CACAAUA (DNA:RNA)
# RNA: B1 RNA with A25C, A27C, U28A, G31A
# DNA 1: CAATCTGAATTCCGGTCTCCC
# DNA 2: TGGTGGCTACGACGGGATT
# B15: GGUCACC (DNA:RNA)
# RNA: B1 RNA with A25G, A26G, A27U, U28C, U30C, G31C
# DNA 1: CAATCTGAATTCCGGTCTCCC
# DNA 2: TGGTGGCTACGACGGGATT
# B16: CGCCCAC (DNA:RNA)
# RNA: B5 RNA with U25C, C26G, G27C, A28C, U29C
# DNA 1: CAATCTGAATTCCGGTCTCCC
# DNA 2: TGGTGGCTACGACGGGATT
# B17: CCCAACC (DNA:RNA)
# RNA: B5 RNA with U25C, G27C, U29A, A30C
# DNA 1: CAATCTGAATTCCGGTCTCCC
# DNA 2: TGGTGGCTACGACGGGATT
# B18: GCAUCGC (DNA:RNA)
# RNA: B1 RNA with A25G, A26C, A29C, U30G, G31C
# DNA 1: CAATCTGAATTCCGGTCTCCC
# DNA 2: TGGTGGCTACGACGGGATT
# B19: GUGGCAU (DNA:RNA)
# RNA: B5 RNA with U25G, C26U, A28G, U29C, C31U
# DNA 1: CAATCTGAATTCCGGTCTCCC
# DNA 2: TGGTGGCTACGACGGGATT
# B20: UGAUCGA (DNA:RNA)
# RNA: B1 RNA with A25U, A26G, A29C, U30G, G31A
# DNA 1: CAATCTGAATTCCGGTCTCCC
# DNA 2: TGGTGGCTACGACGGGATT
# B21: GCCUAAA (DNA:RNA)
# RNA: B1 RNA with A25G, A26C, A27C, U30A, G31A
# DNA 1: CAATCTGAATTCCGGTCTCCC
# DNA 2: TGGTGGCTACGACGGGATT
# B22: UUUCGCC (DNA:RNA)
# RNA: B5 RNA with C26U, G27U, A28C, U29G, A30C
# DNA 1: CAATCTGAATTCCGGTCTCCC
# DNA 2: TGGTGGCTACGACGGGATT
# B23: UAGUAAA (DNA:RNA)
# RNA: B1 RNA with A25U, A27G, U30A, G31A
# DNA 1: CAATCTGAATTCCGGTCTCCC
# DNA 2: TGGTGGCTACGACGGGATT
# B24: AACCCCC (DNA:RNA)
# RNA: B1 RNA with A27C, U28C, A29C, U30C, G31C
# DNA 1: CAATCTGAATTCCGGTCTCCC
# DNA 2: TGGTGGCTACGACGGGATT
# B25: UUUCCAG (DNA:RNA)
# RNA: B5 RNA with C26U, G27U, A28C, U29C, C31G
# DNA 1: CAATCTGAATTCCGGTCTCCC
# DNA 2: TGGTGGCTACGACGGGATT
# B26: GCGGUAA (DNA:RNA)
# RNA: B5 RNA with U25G, A28G, C31A
# DNA 1: CAATCTGAATTCCGGTCTCCC
# DNA 2: TGGTGGCTACGACGGGATT
# B27: GCUAGCA (DNA:RNA)
# RNA: B5 RNA with U25G, G27U, U29G, A30C, C31A
# DNA 1: CAATCTGAATTCCGGTCTCCC
# DNA 2: TGGTGGCTACGACGGGATT
# B28: CCACUUG (DNA:RNA)
# RNA: B1 RNA with A25C, A26C, U28C, A29U
# DNA 1: CAATCTGAATTCCGGTCTCCC
# DNA 2: TGGTGGCTACGACGGGATT
# B29: GUAGGGU (DNA:RNA)
# RNA: B1 RNA with A25G, A26U, U28G, A29G, U30G, G31U
# DNA 1: CAATCTGAATTCCGGTCTCCC
# DNA 2: TGGTGGCTACGACGGGATT
# B30: GACAAUG (DNA:RNA)
# RNA: B1 RNA with A25G, A27C, U28A
# DNA 1: CAATCTGAATTCCGGTCTCCC
# DNA 2: TGGTGGCTACGACGGGATT
# B31: UUGGUGC (DNA:RNA)
# RNA: B5 RNA with C26U, A28G, A30G
# DNA 1: CAATCTGAATTCCGGTCTCCC
# DNA 2: TGGTGGCTACGACGGGATT
# Target: T1, RBFOX1 RRM RbFoxmut (Fox-RRM*)
# Assay: EMSA; HiTS-Eq, 1 nM pool, 10 min; buffer printed only for the single-RNA assays: 10 mM Tris pH 7.5, 150 mM NaCl, 3.4 mM EDTA, 0.001% NP-40, 30 C
# Settings: tags: His6 N-terminal (pET28a); label: 5' 32P
# Summary of the method: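 Purified wild-type or mutant RbFox RRM at increasing concentrations was equilibrated with 1 nM of 5′-radiolabelled RNA carrying 7 randomized nucleotides for 10 min in 50 µL. Unbound RNA was separated by 8% native PAGE and sequenced. Relative association constants came from read-count changes of each RNA species compared with the control reaction, normalised to the cognate motif.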
row,Binder,binding signal
1,B1,0.105 KA relative to UGCAUGU
2,B2,0.0769 KA relative to UGCAUGU
3,B3,0.104 KA relative to UGCAUGU
4,B4,0.0835 KA relative to UGCAUGU
5,B5,0.0681 KA relative to UGCAUGU
6,B6,0.0729 KA relative to UGCAUGU
7,B7,0.314 KA relative to UGCAUGU
8,B8,0.0755 KA relative to UGCAUGU
9,B9,0.252 KA relative to UGCAUGU
10,B10,0.0733 KA relative to UGCAUGU
11,B11,0.0595 KA relative to UGCAUGU
12,B12,0.0873 KA relative to UGCAUGU
13,B13,0.0611 KA relative to UGCAUGU
14,B14,0.084 KA relative to UGCAUGU
15,B15,0.0668 KA relative to UGCAUGU
16,B16,0.0709 KA relative to UGCAUGU

row,Binder,binding signal
1,B17,0.0535 KA relative to UGCAUGU
2,B18,0.443 KA relative to UGCAUGU
3,B19,0.123 KA relative to UGCAUGU
4,B20,0.148 KA relative to UGCAUGU
5,B21,0.0698 KA relative to UGCAUGU
6,B22,0.0936 KA relative to UGCAUGU
7,B23,0.117 KA relative to UGCAUGU
8,B24,0.0584 KA relative to UGCAUGU
9,B25,0.0923 KA relative to UGCAUGU
10,B26,0.122 KA relative to UGCAUGU
11,B27,0.173 KA relative to UGCAUGU
12,B28,0.107 KA relative to UGCAUGU
13,B29,0.0956 KA relative to UGCAUGU
14,B30,0.035 KA relative to UGCAUGU
15,B31,0.118 KA relative to UGCAUGU
